# According to publication PMC9911399, “Two distinct binding modes provide the RNA-binding protein RbFox with extraordinary sequence specificity”:
# Positions count from the first letter of the chain named. Some of the results follow.
# T1: RBFOX1 RRM RbFoxmut (Fox-RRM*) (Homo sapiens, UniProt Q9NWB1 109-208, R118D;E147R;N151S;E152T)
# T1 sequence: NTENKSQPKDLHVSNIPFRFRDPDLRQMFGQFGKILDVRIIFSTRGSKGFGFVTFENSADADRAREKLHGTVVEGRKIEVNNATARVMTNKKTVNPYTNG
# B1: UGUUAUC (DNA:RNA)
# RNA: GGGAGACCGGAAUUCAGAUUGUCCUGUUAUCUUAAAUCCCGUCGUAGCCACCA
# DNA 1: CAATCTGAATTCCGGTCTCCC
# DNA 2: TGGTGGCTACGACGGGATT
# B2: UCAGUAC (DNA:RNA)
# RNA: B1 RNA with G26C, U27A, U28G, A29U, U30A
# DNA 1: CAATCTGAATTCCGGTCTCCC
# DNA 2: TGGTGGCTACGACGGGATT
# B3: CAGAAAG (DNA:RNA)
# RNA: B1 RNA with U25C, G26A, U27G, U28A, U30A, C31G
# DNA 1: CAATCTGAATTCCGGTCTCCC
# DNA 2: TGGTGGCTACGACGGGATT
# B4: GCAGUGU (DNA:RNA)
# RNA: GGGAGACCGGAAUUCAGAUUGUCCGCAGUGUUUAAAUCCCGUCGUAGCCACCA
# DNA 1: CAATCTGAATTCCGGTCTCCC
# DNA 2: TGGTGGCTACGACGGGATT
# B5: UUGCCCA (DNA:RNA)
# RNA: B1 RNA with G26U, U27G, U28C, A29C, U30C, C31A
# DNA 1: CAATCTGAATTCCGGTCTCCC
# DNA 2: TGGTGGCTACGACGGGATT
# B6: GCUUUUU (DNA:RNA)
# RNA: B4 RNA with A27U, G28U, G30U
# DNA 1: CAATCTGAATTCCGGTCTCCC
# DNA 2: TGGTGGCTACGACGGGATT
# B7: ACUGGGU (DNA:RNA)
# RNA: B4 RNA with G25A, A27U, U29G
# DNA 1: CAATCTGAATTCCGGTCTCCC
# DNA 2: TGGTGGCTACGACGGGATT
# B8: GCUAUAC (DNA:RNA)
# RNA: B4 RNA with A27U, G28A, G30A, U31C
# DNA 1: CAATCTGAATTCCGGTCTCCC
# DNA 2: TGGTGGCTACGACGGGATT
# B9: GUCCCCU (DNA:RNA)
# RNA: B4 RNA with C26U, A27C, G28C, U29C, G30C
# DNA 1: CAATCTGAATTCCGGTCTCCC
# DNA 2: TGGTGGCTACGACGGGATT
# Biological target: T1, RBFOX1 RRM RbFoxmut (Fox-RRM*)
# Test: EMSA; HiTS-Eq, 1 nM pool, 10 min; buffer printed only for the single-RNA assays: 10 mM Tris pH 7.5, 150 mM NaCl, 3.4 mM EDTA, 0.001% NP-40, 30 C
# Conditions: tags: His6 N-terminal (pET28a); label: 5' 32P
# Procedure, shortened: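 These values rest on relative association constants, computed from read-count changes of each RNA species versus the control reaction and normalised to the cognate motif. Reads came from free RNA recovered by 8% native PAGE after purified RbFox RRM (wild type or mutant) at increasing concentrations was equilibrated for 10 min in 50 µL with 1 nM of a 5′-radiolabelled pool with 7 randomized nucleotides and DNA-annealed flanks.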
row,Binder,binding signal
1,B1,0.351 KA relative to UGCAUGU
2,B2,0.11 KA relative to UGCAUGU
3,B3,0.0999 KA relative to UGCAUGU
4,B4,0.136 KA relative to UGCAUGU
5,B5,0.0787 KA relative to UGCAUGU
6,B6,0.0825 KA relative to UGCAUGU
7,B7,0.13 KA relative to UGCAUGU
8,B8,0.103 KA relative to UGCAUGU
9,B9,0.053 KA relative to UGCAUGU
